Source: PubChem BioAssay AID588591 (National Center for Advancing Translational Sciences (NCATS), 2011)
Among all 390,000 compounds or so, about 4,700 (1.2%) were called active. About 4% were inconclusive and are not listed. The call rests on the fitted dose curve; in most records, active means well fitted inhibition curve with a large enough effect; inconclusive means small, poorly fitted or top-dose-only effect, or another doubt; inactive means no such curve, though single readings can be large or run the other way. The entries are a selection whose mix differs from that of the whole data set. Some structures have more than one record in an assay (separate samples or runs), and their calls can disagree.

Target: DNA polymerase eta (Homo sapiens) (UniProt Q9Y253)
Chain of UniProt Q9Y253 (Q9Y253 whole entry, looked up): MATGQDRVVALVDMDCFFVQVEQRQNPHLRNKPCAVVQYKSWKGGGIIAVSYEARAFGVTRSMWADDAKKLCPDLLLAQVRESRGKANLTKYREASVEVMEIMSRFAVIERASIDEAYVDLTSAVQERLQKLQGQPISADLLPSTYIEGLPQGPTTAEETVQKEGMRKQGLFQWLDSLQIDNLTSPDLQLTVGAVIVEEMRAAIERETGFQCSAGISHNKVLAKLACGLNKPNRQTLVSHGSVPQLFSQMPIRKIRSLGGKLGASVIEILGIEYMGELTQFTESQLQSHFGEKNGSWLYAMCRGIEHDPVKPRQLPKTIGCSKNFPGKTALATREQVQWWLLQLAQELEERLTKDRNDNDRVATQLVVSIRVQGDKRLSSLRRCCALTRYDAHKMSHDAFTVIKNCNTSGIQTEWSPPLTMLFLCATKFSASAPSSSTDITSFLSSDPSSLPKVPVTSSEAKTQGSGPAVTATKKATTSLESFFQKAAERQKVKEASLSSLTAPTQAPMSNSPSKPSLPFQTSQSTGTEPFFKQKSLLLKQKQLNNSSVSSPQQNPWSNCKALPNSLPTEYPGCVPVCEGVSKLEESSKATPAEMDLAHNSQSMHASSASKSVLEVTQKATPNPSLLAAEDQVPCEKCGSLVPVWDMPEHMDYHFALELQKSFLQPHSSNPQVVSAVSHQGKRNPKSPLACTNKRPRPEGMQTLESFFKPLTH
Test: qHTS for Inhibitors of Polymerase Eta
Conditions: recombinant Pol eta, fluorescent DNA replication assay; series mostly up to 114 µM; activity change, negative = inhibition: at the top concentration
Method in brief: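 Fluorescent replication assay: 50 nM final substrate added after a 15 min room-temperature compound preincubation with 10 nM enzyme. Signal taken at 0 min and again at 10 min.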
On the % scale 0 is the no-effect control and ±100 the full control effect; potency means the concentration at half of the fitted maximal effect.

Structure (SMILES) | activity change, negative = inhibition | Potency
Cc1ccc(NC(=O)CN2C(=O)N/C(=C\c3ccco3)C2=O)cc1 | inactive: -6.85% | –
O=C(NC1CCCc2ccccc21)c1ccc2c(c1)sc1nc(-c3ccc(F)cc3)cn12 (stereo unspecified) | inactive: 23% | –
CC1=NN(c2ccc(Cl)c(C(=O)O)c2)C(=O)/C1=C/c1ccc(-c2ccccc2[N+](=O)[O-])o1 | – | active: 20 µM
Cc1cc(Br)ccc1OCc1nc(-c2cccnc2)no1 | inactive: 2.44% | –
COc1cc(NC(=O)Cc2cccs2)cc(OC)c1 | inactive: 29.9% | –
CCc1cccc(NS(=O)(=O)c2c(C)nc3sc(CC)nn3c2=O)c1 | – | inactive
N#C/C(=C\c1coc2ccc(O)cc2c1=O)C(=O)Nc1nc2ccccc2s1 | – | active: 3.55 µM
C/C(N)=C(/C#N)C(=O)CSc1nc2ccccc2[nH]1 | – | active: 50.1 µM
N#CC(=C(O)COC(=O)c1ccc2c(c1)OCCO2)c1nc2ccccc2[nH]1 | inactive: -9.58% | –
O=C(COc1ccccc1[N+](=O)[O-])OCC(=O)c1ccc(Br)s1 | – | active: 79.4 µM
C/C(=N\Nc1cccc(C(=O)O)c1)c1ccc2c(c1)Nc1ccccc1S2 | – | active: 20 µM
CNC(=O)c1cc(Nc2nnc(-c3ccc(O)cc3)c3ccccc23)ccc1OC | inactive: 0.653% | –
Oc1cc(O)c2c(c1)O[C@H](c1ccc(O)c(O)c1)[C@@H](O)C2 | inactive: -6.13% | –
CCOC(=O)c1ccc(N2CCN(c3ccc(F)cc3)CC2)c(NC(=O)Nc2cccc(OC)c2)c1 | inactive: -9.48% | –
COc1cc(NC(=O)Cn2ccn(Cc3ccccc3OC)c(=O)c2=O)cc(OC)c1 | inactive: 19.2% | –
Cc1cccc(Cn2c(C)c(C)c3cc(C(=O)NCc4ccco4)ccc32)c1 | – | active: 79.4 µM
CCCCN(CCCC)CCNC(=O)c1cn(CC)c2ccc(S(=O)(=O)N3CCc4ccccc4C3)cc2c1=O | inactive: -26.6% | –
C[C@H](/C=C/[C@@]1(O)[C@H](C)C[C@H](O)CC1(C)C)O[C@@H]1O[C@H](CO)[C@@H](O)[C@H](O)[C@H]1O | inactive: -19% | –
Cc1ccc(NC(=O)C(C)OC(=O)c2ccc(Cl)nc2)cc1S(=O)(=O)N1CCOCC1 (stereo unspecified) | – | active: 20 µM
CCCN(CCC)CCNC(=O)c1cc2c(-c3ccc(Cl)cc3)nn(C)c2s1 | – | inactive
CCc1ccccc1NC(=O)Cc1cn(C)c2ccccc12 | inactive: -9.1% | –
O=C(CSc1nnc(-c2ccccc2)o1)c1nnc(-c2ccccc2)o1 | – | active: 20 µM
CCCCCCN1C[C@@H](n2cc(C3CC3)nn2)[C@H](O)C[C@@H]1c1ccc(Cl)cc1 | inactive: -19.5% | –

Structure (SMILES) | activity change, negative = inhibition | Potency
CC(C)Cc1nc2sc3c(SCC(N)=O)ncnc3c2c2c1CCC2 | inactive: 39.6% | –
C[C@@H]1CN([C@@H](C)CO)C(=O)CCCn2nncc2CO[C@H]1CN(C)C(=O)Nc1cccc(Oc2ccccn2)c1 | inactive: -6.87% | –
CC(/C=N/Nc1ccc2nncn2n1)=C\c1ccccc1 | – | active: 79.4 µM
Cc1noc(C)c1S(=O)(=O)N1CCC(C(=O)N2CCN(c3ccccc3Cl)CC2)CC1 | inactive: -1.66% | –
O=C(C1CCCCC1)N1C[C@H](n2cc(-c3ccc(F)cc3)nn2)[C@@H](O)C[C@@H]1c1ccccc1 | inactive: -1.92% | –
O=c1c(O[C@@H]2O[C@H](CO)[C@@H](O)[C@H](O)[C@H]2O)c(-c2ccc(O)cc2)oc2cc(O)cc(O)c12 | inactive: 4.16% | –
CC(=O)C[C@@H](O)CC(=O)[C@H]1OC(=O)[C@H](C)C/C=C\Cc2ccccc21 | inactive: -7.68% | –
CSc1oc(-c2cccs2)nc1S(=O)(=O)c1ccccc1 | inactive: 31.1% | –
N#C/C(=C(/O)CCl)c1nc2c(s1)CCc1ccccc1-2 | – | active: 35.5 µM
COc1ccc(NC2c3ccccc3C(=O)N2Cc2ccccc2Cl)cc1OC (stereo unspecified) | inactive: 46.6% | –
CCC(=O)OC1(C)C(=O)C2=COC(c3ccc(OC)cc3)=CC2=C(Br)C1=O (stereo unspecified) | – | active: 44.7 µM
O=C(OCc1cn([C@H]2CN(C(=O)C3CCCCC3)[C@@H](c3ccc(Cl)cc3)C[C@@H]2O)nn1)c1ccccc1 | inactive: -31.2% | –
CCc1ccccc1N(C(C)=O)c1nc(CN=C=S)cs1 | inactive: 21.2% | –
COc1ccc(-c2cc(C(=O)Nc3cc(C)nn3-c3ccccc3)no2)cc1OC | – | inactive
Cn1c(SCC(=O)N/N=C/C=C\c2ccco2)nc2ccccc21 | – | active: 22.4 µM
C=CC[C@@H](Cc1ccc(F)cc1)C(=O)OC[C@H]1CCCN1C(=O)[C@@H](CC=C)CC(=O)N[C@@H](CO)Cc1ccccc1 | inactive: -24.2% | –
O=C(Cc1ccc(S(=O)(=O)N2CCOCC2)s1)Nc1nc2c(s1)CCCC2 | – | active: 3.98 µM
Cc1cccc(NC(=O)Nc2ccc(C)c(C)c2)n1 | inactive: -17.1% | –
COc1ccc(Cl)cc1NC(=O)c1noc2c1CCCC2 | inactive: 44.8% | –
O=C(/C=C/c1ccc(O)c(O)c1)OCCc1ccccc1 | inactive: 4.64% | –
CCN(CC)c1ccc(SS(=O)(=O)O)cc1 | inactive: -19.8% | –
N=C1/C(=C\c2ccc(SCc3ccccc3)o2)C(=O)N=C2SC(CC(=O)N3CCOCC3)=NN12 | – | active: 56.2 µM
Cc1c2cnn(CC(=O)Nc3c(F)c(F)cc(F)c3F)c(=O)c2c(C)n1Cc1ccccc1F | – | active: 39.8 µM

Structure (SMILES) | activity change, negative = inhibition | Potency
Nc1nc(NCC2CCCO2)nc(Nc2cccc(F)c2)c1[N+](=O)[O-] (stereo unspecified) | inactive: 34.3% | –
O=C(CSc1nc(-c2ccccc2)nc2ccc(F)cc12)Nc1cccc(C(=O)O)c1 | – | active: 79.4 µM
COC(=O)C1=CO[C@@H](O[C@@H]2O[C@H](CO)[C@@H](O)[C@H](O)[C@H]2O)C2C1C=C[C@@]2(O)CO (stereo partly specified) | inactive: -15.7% | –
NC(=O)c1nn(-c2ccccc2)nc1NC(=O)CN1CCOCC1 | inactive: 41.6% | –
COC(=O)C(CC(C)C)NC(=O)CNC(=O)c1ccccc1C (stereo unspecified) | inactive: -14.9% | –
Cc1cc(C=O)c(C)n1-c1cccc(C(=O)O)c1 | – | active: 3.98 µM
O=C(N/N=C/c1ccc(O)cc1O)c1ccc(NC(=O)C2CCCCC2)cc1 | – | active: 35.5 µM
CC(=O)C[C@H](O)CC(=O)[C@H]1OC(=O)[C@@H](C)C/C=C\Cc2ccccc21 | inactive: -12.9% | –
CN(C(=O)CCS(=O)(=O)c1cc2c(cc1Cl)NC(=O)CO2)C1CCCCC1 | inactive: 0.526% | –
OCC[C@H]1C[C@H](O)[C@@H](O)[C@]2(CCCc3ccccc3O2)O1 | inactive: 1.82% | –
C[C@@H]1O[C@@H](OC[C@@H]2O[C@H](Oc3c(-c4ccc(O)cc4)oc4cc(O)cc(O)c4c3=O)[C@@H](O)[C@H](O)[C@H]2O)[C@H](O)[C@H](O)[C@H]1O | inactive: 3.73% | –
CCOCCc1c(O)nc(SCC(=O)NCc2ccco2)[nH]c1=O | – | active: 15.8 µM
Cc1cc(Oc2ccc(=O)n(C)n2)nc(SCC(N)=O)n1 | inactive: 29.3% | –
C[C@@H](NC(=O)c1ncn(Cc2ccccc2)c1C(=O)N[C@H](C)c1ccccc1)c1ccccc1 | inactive: -18.9% | –
COc1ccccc1N1CCN(C(=O)c2cc3c(=O)n(C)c4ccccc4c3n2C)CC1 | inactive: -11.9% | –
O=C(Cc1ccc(S(=O)(=O)N2CCCC2)s1)NC1CCCCCC1 | – | active: 14.1 µM
Cc1c(NC(=O)c2ccccc2F)cccc1-c1nc2cccnc2s1 | inactive: 22.9% | –
O=c1c(C(c2ccc(F)cc2)c2c(O)nc3n(c2=O)CCCS3)c(O)nc2n1CCCS2 | inactive: 29.8% | –
COc1cccc(/C=C2\SC(=S)N(CCCC(=O)N3CCCCC3)C2=O)c1 | inactive: 18.4% | –
CN(C(=O)COC(=O)c1nc(-c2ccccc2)n(-c2ccccc2)n1)C1CCS(=O)(=O)C1 (stereo unspecified) | inactive: -2.3% | –
O=C(O)/C(=C\c1ccc(Cl)c([N+](=O)[O-])c1)c1ccc(S(=O)(=O)N2CCCCC2)s1 | – | active: 79.4 µM
NC(=O)CSc1nnc2ccc(-c3ccc(F)cc3)nn12 | inactive: 45.1% | –
CC(=O)Nc1ccc(Nc2nnc(-c3ccc(C)c(S(N)(=O)=O)c3)c3ccccc23)cc1 | inactive: -29% | –

Structure (SMILES) | activity change, negative = inhibition | Potency
O=C(O)CC(NC(=O)C(c1ccccc1)c1ccccc1)c1cccc([N+](=O)[O-])c1 (stereo unspecified) | inactive: 22.6% | –
O=C(CCCN1C(=O)/C(=C\c2cccs2)SC1=S)NNC(=O)c1ccncc1 | inactive: -11.1% | –
O=C(O)c1cccc(NC(=O)c2ccc3c(c2)C(=O)N(Cc2ccco2)C3=O)c1 | – | active: 17.8 µM
Cc1ccccc1/C=C/c1nc2ccccc2c(=O)n1Cc1ccccc1 | inactive: -3.47% | –
Cc1nc(/C=C/c2ccccc2)[nH]c(=O)c1-c1ccccc1 | inactive: -6.85% | –
Cc1onc(-c2ccc(Cl)cc2Cl)c1C(=O)/C=C/N(C)C | inactive: 22.2% | –
CCOCCCNC(=O)C(c1ccc(C)cc1)N(Cc1ccc2c(c1)OCO2)C(=O)c1cnccn1 (stereo unspecified) | inactive: 7.08% | –
COc1ccccc1NC(=O)C(CCS(C)(=O)=O)N1C(=O)c2ccccc2C1=O (stereo unspecified) | inactive: -7.87% | –
CCOC(=O)c1ccc(S(=O)(=O)N2CCN(S(=O)(=O)CC)CC2)cc1 | inactive: 0.266% | –
CC(=O)c1ccc(NC(=O)c2ccc(-c3nc(CSc4ccccc4)c(C)o3)cc2)cc1 | inactive: 15% | –
COc1ccc(C[C@@H]2CN3C(=NC[C@@H]3C)N2CCNC(=O)c2ccc(C)c(Br)c2)cc1 | inactive: -10.9% | –
CC(C)(C)OC(=O)NCc1ccc(NC(=O)c2nc[nH]c2C(=O)NCCCCCCNC(=O)c2[nH]cnc2C(=O)Nc2ccc(CNC(=O)OC(C)(C)C)cc2)cc1 | inactive: 36.1% | –
Cc1ccc(CN(C)C(=O)CCc2nc3sc4c(c3c(=O)[nH]2)CCCC4)o1 | – | active: 22.4 µM
CCN1CC2=C(OC(N)=C(C#N)C2c2cccs2)/C(=C\c2cccs2)C1 (stereo unspecified) | inactive: -27.2% | –
O=C(NC(Cc1ccccc1)C(=O)O)/C(=C/c1ccc(Cl)cc1)NC(=O)c1ccco1 (stereo unspecified) | inactive: -17.3% | –
O=C(CCl)N(c1ccccc1)c1c[nH]c2ccccc12 | – | active: 14.1 µM
C#CCNc1c2c(nc3ncnn13)CC(C)CC2 (stereo unspecified) | inactive: 25.5% | –
O=C(O)/C=C\C(=O)NNC(=O)c1cc(-c2ccccc2)n[nH]1 | inactive: -10.7% | –
COc1ccc(S(=O)(=O)/N=C2\C=C(NS(=O)(=O)c3ccccc3)C(=O)c3ccccc32)cc1 | – | active: 22.4 µM
OCCN1c2ccccc2CCc2ccccc21 | inactive: 24.9% | –
O=C1CNC(=O)/C1=C/c1ccc(O)cc1 | inactive: 0.686% | –
Cc1[nH]n(-c2ccccc2)c(=O)c1N=Nc1c(O)cc(S(=O)(=O)N(C)C)c2ccccc12 | – | active: 89.1 µM
